The supplement of paper PMC12217912
The list shows a part of the results. The full chains were built here from the parent and the listed change. Inactive controls read about 0.05.

B1: TEV protease; numbered along this chain (parent)
chain: MGESLFKGPRDYNPISSSICHLTNESDGHTTSLYGIGFGPFIITNKHLFRRNNGTLVVQSLHGVFKVKDTTTLQQHLVDGRDMIIIRMPKDFPPFPQKLKFREPQREERICLVTTNFQTKSMSSMVSDTSCTFPSGDGIFWKHWIQTKDGQCGSPLVSTRDGFIVGIHSASNFTNTNNYFTSVPKNFMELLTNQEAQQWVSGWRLNADSVLWGGHKVFMVKPEEPFQPVKEATQL

Variants of: B1
Assay: raw area under fraction-flipped curve 0-4 h after induction (AUC4h, not background-subtracted), DNA-recorder readout of cleavage of the substrate (dimensionless); higher = more cleavage of the substrate by the protease variant
Settings: temperature: 34 °C; time window: 0-4 h after rhamnose induction
Description: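 In vivo DNA recorder in E. coli TOP10(DE3) ΔrhaA at 34 °C. Each TEVp single-site mutant (parent TEVp 0) is paired with a single-site variant of the 7-mer TEVs (canonical ENLYFQ|S). The substrate sits between flexible linkers in a Bxb1-sfGFP-TEVs-SsrA fusion, so cleavage stabilises Bxb1 and speeds flipping of a recombination array, read by NGS. The value is the raw area under the fraction-flipped curve over 0-4 h after rhamnose induction (AUC4h), with ≥20 reads per time point. It is not background-subtracted; inactive controls average about 0.047.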
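Also: Bxb1 expression induced with 0.2% (w/v) L-rhamnose at OD600 near 0.5, cultures sampled hourly, flipped fraction per protease–substrate barcode pair counted by paired-end Illumina sequencing.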

MGESLFKGPRDYNPISSSICHLTNESDGHTTSLYGIGFGPFIITNKHLFRRNNGTLVVQSLHGVFKVKDTTTLQQHLVDGRDMIIIRMPKDFPPFPQKLKFREPQREERICLVTTNFQTKSMSSMVSDTSCTFPSGDGIFWKHWIQTKDGQCGSPLVSTRDGFIVGIHSASNFTNTNNYFTSVPKNFMELLTNQEAQQWVSGWRLNADSVLWGGHKVFMVKPEEPFQPMKEATQL [V229M]
area with substrate ENLYFAS: 0.058
area with substrate ENLYFCS: 0.0598
area with substrate ENLYFDS: 0.0593
area with substrate ENLYFES: 0.0648
area with substrate ENLYFFS: 0.054
area with substrate ENLYFIS: 0.0413
area with substrate ENLYFKS: 0.0615
area with substrate ENLYFLS: 0.0533
area with substrate ENLYFMS: 0.0749
area with substrate ENLYFNS: 0.07
area with substrate ENLYFPS: 0.0756
area with substrate ENLYFRS: 0.0598
area with substrate ENLYFYS: 0.0599

MGESLFKGPRDYNPISSSICHLTNESDGHTTSLYGIGFGPFIITNKHLFRRNNGTLVVQSLHGVFKVKDTTTLQQHLVDGRDMIIIRMPKDFPPFPQKLKFREPQREERICLVTTNFQTKSMSSMVSDTSCTFPSGDGIFWKHWIQTKDGQCGSPLVSTRDGFIVGIHSASNFTNTNNYFTSVPKNFMELLTNQEAQQWVSGWRLNADSVLWGGHKVFMVKPEEPFQPGKEATQL [V229G]
area with substrate ENLYFAS: 0.0562
area with substrate ENLYFES: 0.0673
area with substrate ENLYFFS: 0.0812
area with substrate ENLYFHS: 0.0619
area with substrate ENLYFIS: 0.0536
area with substrate ENLYFKS: 0.0498
area with substrate ENLYFLS: 0.0585
area with substrate ENLYFMS: 0.0704
area with substrate ENLYFNS: 0.0737
area with substrate ENLYFPS: 0.0533
area with substrate ENLYFRS: 0.0632
area with substrate ENLYFTS: 0.0559
area with substrate ENLYFVS: 0.0619
area with substrate ENLYFWS: 0.0569

MGESLFKGPRDYNPISSSSCHLTNESDGHTTSLYGIGFGPFIITNKHLFRRNNGTLVVQSLHGVFKVKDTTTLQQHLVDGRDMIIIRMPKDFPPFPQKLKFREPQREERICLVTTNFQTKSMSSMVSDTSCTFPSGDGIFWKHWIQTKDGQCGSPLVSTRDGFIVGIHSASNFTNTNNYFTSVPKNFMELLTNQEAQQWVSGWRLNADSVLWGGHKVFMVKPEEPFQPVKEATQL [I19S]
area with substrate ENLYFCS: 0.0535
area with substrate ENLYFES: 0.0652
area with substrate ENLYFFS: 0.0503
area with substrate ENLYFIS: 0.0827
area with substrate ENLYFMS: 0.0572
area with substrate ENLYFPS: 0.0544
area with substrate ENLYFTS: 0.0523

MGESLFKGPRDYNPISSSNCHLTNESDGHTTSLYGIGFGPFIITNKHLFRRNNGTLVVQSLHGVFKVKDTTTLQQHLVDGRDMIIIRMPKDFPPFPQKLKFREPQREERICLVTTNFQTKSMSSMVSDTSCTFPSGDGIFWKHWIQTKDGQCGSPLVSTRDGFIVGIHSASNFTNTNNYFTSVPKNFMELLTNQEAQQWVSGWRLNADSVLWGGHKVFMVKPEEPFQPVKEATQL [I19N]
area with substrate ENLYFCS: 0.0132
area with substrate ENLYFES: 0.0622
area with substrate ENLYFFS: 0.0566
area with substrate ENLYFGS: 0.0638
area with substrate ENLYFHS: 0.0208
area with substrate ENLYFIS: 0.046
area with substrate ENLYFLS: 0.0654
area with substrate ENLYFMS: 0.0555
area with substrate ENLYFNS: 0.0784
area with substrate ENLYFPS: 0.0521
area with substrate ENLYFRS: 0.0559
area with substrate ENLYFSS: 0.0503
area with substrate ENLYFVS: 0.0489
area with substrate ENLYFYS: 0.0471

MGESLFKGPRDYNPISSSICHLTNESDGHTTSLYGQGFGPFIITNKHLFRRNNGTLVVQSLHGVFKVKDTTTLQQHLVDGRDMIIIRMPKDFPPFPQKLKFREPQREERICLVTTNFQTKSMSSMVSDTSCTFPSGDGIFWKHWIQTKDGQCGSPLVSTRDGFIVGIHSASNFTNTNNYFTSVPKNFMELLTNQEAQQWVSGWRLNADSVLWGGHKVFMVKPEEPFQPVKEATQL [I36Q]
area with substrate ENLYFCS: 0.0424
area with substrate ENLYFDS: 0.0481
area with substrate ENLYFES: 0.0618
area with substrate ENLYFFS: 0.0628
area with substrate ENLYFGS: 0.0308
area with substrate ENLYFHS: 0.0422
area with substrate ENLYFIS: 0.0643
area with substrate ENLYFKS: 0.0534
area with substrate ENLYFMS: 0.0402
area with substrate ENLYFNS: 0.0727
area with substrate ENLYFPS: 0.0506
area with substrate ENLYFRS: 0.0512
area with substrate ENLYFSS: 0.0556

MGESLFKGPRDYNPISSSICHLTNESLGHTTSLYGIGFGPFIITNKHLFRRNNGTLVVQSLHGVFKVKDTTTLQQHLVDGRDMIIIRMPKDFPPFPQKLKFREPQREERICLVTTNFQTKSMSSMVSDTSCTFPSGDGIFWKHWIQTKDGQCGSPLVSTRDGFIVGIHSASNFTNTNNYFTSVPKNFMELLTNQEAQQWVSGWRLNADSVLWGGHKVFMVKPEEPFQPVKEATQL [D27L]
area with substrate ENLYFCS: 0.0607
area with substrate ENLYFDS: 0.0498
area with substrate ENLYFES: 0.0539
area with substrate ENLYFFS: 0.0665
area with substrate ENLYFGS: 0.0624
area with substrate ENLYFHS: 0.0424
area with substrate ENLYFIS: 0.0588
area with substrate ENLYFKS: 0.0525
area with substrate ENLYFLS: 0.0775
area with substrate ENLYFMS: 0.0611
area with substrate ENLYFNS: 0.057
area with substrate ENLYFPS: 0.0566
area with substrate ENLYFRS: 0.0812
area with substrate ENLYFSS: 0.0596
area with substrate ENLYFTS: 0.0475
area with substrate ENLYFVS: 0.0484
area with substrate ENLYFWS: 0.0735
area with substrate ENLYFYS: 0.0514

MGESLFKGPRDYNPISSSICHLTNESDGHTTSLYGIGFGPFIITNKHLFRRNNGTLVVQSLHGVFKVKDTTTLQQHLVDGRDMIIIRMPKDFPPFPQKLKFREPQREERICLVTTNFQTKSMSSMVSDTSCTFPSGDGIFWKHWIQTKDGQCGSPLVSTRDGFIVGIHSASNFTNTNNYFTSVPKNFMELLTNQEAQQWVSGWRLNADSVLWGGHKVFMVKPEEPFQPVKEATLL [Q234L]
area with substrate ENLYFAS: 0.0633
area with substrate ENLYFCS: 0.0514
area with substrate ENLYFES: 0.0547
area with substrate ENLYFFS: 0.0662
area with substrate ENLYFIS: 0.0667
area with substrate ENLYFNS: 0.0631
area with substrate ENLYFPS: 0.0653
area with substrate ENLYFRS: 0.057
area with substrate ENLYFSS: 0.0575
area with substrate ENLYFTS: 0.0605
area with substrate ENLYFVS: 0.0605

MGEWLFKGPRDYNPISSSICHLTNESDGHTTSLYGIGFGPFIITNKHLFRRNNGTLVVQSLHGVFKVKDTTTLQQHLVDGRDMIIIRMPKDFPPFPQKLKFREPQREERICLVTTNFQTKSMSSMVSDTSCTFPSGDGIFWKHWIQTKDGQCGSPLVSTRDGFIVGIHSASNFTNTNNYFTSVPKNFMELLTNQEAQQWVSGWRLNADSVLWGGHKVFMVKPEEPFQPVKEATQL [S4W]
area with substrate ENLYFCS: 0.0691
area with substrate ENLYFDS: 0.0507
area with substrate ENLYFFS: 0.067
area with substrate ENLYFIS: 0.059
area with substrate ENLYFKS: 0.0674
area with substrate ENLYFLS: 0.0527
area with substrate ENLYFMS: 0.0608
area with substrate ENLYFNS: 0.0664
area with substrate ENLYFPS: 0.0687
area with substrate ENLYFSS: 0.0325
area with substrate ENLYFTS: 0.0658
area with substrate ENLYFVS: 0.0697
area with substrate ENLYFWS: 0.0625
area with substrate ENLYFYS: 0.0613

MGESLFKGPRDYNPISSSICHLTNESDGHTTSLYGIGFHPFIITNKHLFRRNNGTLVVQSLHGVFKVKDTTTLQQHLVDGRDMIIIRMPKDFPPFPQKLKFREPQREERICLVTTNFQTKSMSSMVSDTSCTFPSGDGIFWKHWIQTKDGQCGSPLVSTRDGFIVGIHSASNFTNTNNYFTSVPKNFMELLTNQEAQQWVSGWRLNADSVLWGGHKVFMVKPEEPFQPVKEATQL [G39H]
area with substrate ENLYFCS: 0.0382
area with substrate ENLYFES: 0.0575
area with substrate ENLYFFS: 0.0704
area with substrate ENLYFGS: 0.03
area with substrate ENLYFHS: 0.0533
area with substrate ENLYFIS: 0.0436
area with substrate ENLYFKS: 0.0481
area with substrate ENLYFLS: 0.0349
area with substrate ENLYFNS: 0.0314
area with substrate ENLYFPS: 0.0392
area with substrate ENLYFRS: 0.0461
area with substrate ENLYFSS: 0.0482
area with substrate ENLYFTS: 0.0398
area with substrate ENLYFYS: 0.038
